# Test results from PubChem BioAssay AID1745853 (National Center for Advancing Translational Sciences (NCATS), 2022).
# This is one part of the list. Shown are side measurements of this screen, not its main read-out; they come without a call. Square brackets hold non-standard residues; d marks the D form. Peptide text beside a SMILES is read from it. Ala(indol-2-yl) = N[C@@H](Cc1cc2ccccc2[nH]1)C(=O)O; Aib = CC(C)(N)C(=O)O
# Assays:
# Experiment in all cases: Primary Screen for Target Class Profiling of Small Molecule Inhibitors of Methyltransferases
# [1] = target: Glycine N-methyltransferase (Homo sapiens) (UniProt Q14749); details: purified enzyme, MTase-Glo SAH luminescence; measured here: GNMT inhibition; at 40 µM; stronger effect = lower value
# Outline: (§1)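 Each enzyme was assayed with SAM and its substrate. SAH formation detected by MTase-Glo luminescence; single-point 40 uM screen[…].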
# [2] = target: Guanidinoacetate N-methyltransferase (Homo sapiens) (UniProt Q14353); details: purified enzyme, MTase-Glo SAH luminescence; measured here: GAMT inhibition; at 40 µM; stronger effect = lower value
# Outline: as §1
# [3] = target: Histamine N-methyltransferase (Homo sapiens) (UniProt P50135); details: purified enzyme, MTase-Glo SAH luminescence; measured here: HNMT inhibition; at 40 µM; stronger effect = lower value
# Outline: as §1
# [4] = target: Nicotinamide N-methyltransferase (Homo sapiens) (UniProt P40261); details: purified enzyme, MTase-Glo SAH luminescence; measured here: NNMT inhibition; at 40 µM; stronger effect = lower value
# Outline: as §1
# [5] = target: Phenylethanolamine N-methyltransferase (Homo sapiens) (UniProt P11086); details: purified enzyme, MTase-Glo SAH luminescence; measured here: PNMT inhibition; at 40 µM; stronger effect = lower value
# Outline: as §1
# On the % scale 0 is the no-effect control and ±100 the full control effect.
Structure (SMILES),"activity change, negative = inhibition [1]","activity change, negative = inhibition [2]","activity change, negative = inhibition [3]","activity change, negative = inhibition [4]","activity change, negative = inhibition [5]"
CCOc1ccc(C2c3cccn3-c3ccccc3CN2C(=O)Nc2cc(Cl)ccc2C)cc1 (stereo not drawn),0.934%,0%,7.08%,0.396%,7.28%
Oc1ccc2c3c1O[C@H]1c4[nH]c5c(c4C[C@@]4(O)[C@@H](C2)N(CC2CC2)CC[C@]314)C[C@@]1(O)[C@H]2Cc3ccc(O)c4c3[C@@]1(CCN2CC1CC1)[C@H]5O4,6.97%,14.1%,-36.4%,-8.1%,-0.406%
CCCCc1ccc(C(=O)O)nc1,3.47%,6.73%,4.99%,-1.77%,9.65%
CC[C@@]1(O)C(=O)OCc2c1cc1n(c2=O)Cc2cc3c(OC)cccc3nc2-1,-7.93%,-10.5%,0.602%,-19.5%,-13.1%
CC(C)CCNC(=O)N1Cc2ccccc2-n2cccc2C1c1cccs1 (stereo not drawn),1.45%,0.555%,-0.882%,-2.44%,-2.36%
CN(C)[C@@H]1C(=O)C(C(N)=O)=C(O)[C@@]2(O)C(=O)C3=C(O)c4c(O)ccc(Cl)c4[C@@](C)(O)C3C[C@@H]12 (stereo partly drawn),-11.1%,12%,0.159%,-1.65%,-2.6%
COc1cccc(NC(=O)N2Cc3ccccc3-n3cccc3C2c2ccc(OC)c(OC)c2)c1 (stereo not drawn),15.6%,2.03%,9.57%,6.11%,9.33%
COc1cccc(CNC(=O)N2Cc3ccccc3-n3cccc3C2c2ccc(OC)c(OC)c2)c1 (stereo not drawn),6.51%,0.709%,0.308%,-0.056%,5.3%
Cc1cnc(C2CC2)n1C1CCNCC1,-1.19%,-3.6%,-23.1%,-3.53%,-4.7%
CN1C(=O)CN=C(c2ccccc2Cl)c2cc(Cl)ccc21,5.05%,3.82%,6.18%,-20.2%,-0.556%
COC(=O)CCNC(=O)N1Cc2ccccc2-n2cccc2C1c1cccc(Cl)c1 (stereo not drawn),6.6%,0.988%,-3.22%,-0.313%,5.79%
COc1ccc(C2c3cccn3-c3ccccc3CN2C(=O)Nc2ccc(Cl)cc2)cc1OC (stereo not drawn),7.71%,1.08%,4.32%,-1.11%,4.42%
C=CCN1CCC23c4c5ccc(O)c4O[C@H]2C(=O)CC[C@@]3(O)C1C5 (stereo partly drawn),0.225%,15.5%,6.34%,0.298%,6%
Cc1ccc(C2c3cccn3-c3ccccc3CN2C(=O)Nc2ccc3c(c2)OCCO3)cc1 (stereo not drawn),7.18%,0%,5.52%,4.91%,3.95%
CCC1c2cccn2-c2ccccc2CN1C(=O)Nc1ccc(F)cc1 (stereo not drawn),0.291%,0.947%,-8.52%,-1.52%,-0.882%
Cc1ccccc1C1c2cccn2-c2ccccc2CN1C(=O)Nc1ccc(F)cc1 (stereo not drawn),1.65%,0%,-1.96%,-4.38%,-0.519%
C[C@H](NC(=O)Cc1cc(F)cc(F)c1)C(=O)N[C@@H]1N=C(c2ccccc2)c2ccccc2N(C)C1=O,-2.02%,-7.56%,-5.39%,-25.4%,-13.6%
c1cc2c(cc1C1OC[C@@H]3C(c4ccc5c(c4)OCO5)OC[C@H]13)OCO2 (stereo partly drawn),,-5.55%,,-11.2%,-1.6%
CSc1ccc(C2c3cccn3-c3ccccc3CN2C(=O)NC2CCCC2)cc1 (stereo not drawn),-2%,1.68%,0.185%,-7.15%,-0.081%
C[N+](C)(C)CC#CCOC(=O)Nc1cccc(Cl)c1,0.858%,15.4%,5.39%,0.581%,9.94%
CC(C)(NC(=O)[C@@H](N)Cc1ccc(O)cc1)C(=O)N[C@@H](Cc1cc2ccccc2[nH]1)C(=O)N[C@@H](Cc1ccccc1)C(=O)O (H-Y[Aib][Ala(indol-2-yl)]F-OH),3.08%,1.57%,8.44%,-9.4%,0.272%
CCC1c2cccn2-c2ccccc2CN1C(=O)NCc1ccc(C)cc1 (stereo not drawn),6.99%,0%,3.53%,-1.86%,5.41%
CCc1ccc(C2c3cccn3-c3ccccc3CN2C(=O)Nc2cc(OC)ccc2OC)cc1 (stereo not drawn),4.68%,0%,-1.49%,1.13%,2.06%
O=C1NCN(c2ccccc2)C12CCN(CC1COc3ccccc3O1)CC2 (stereo not drawn),-4.22%,9.05%,5.06%,-7.47%,1.42%
CC(O)(c1ccccc1)C(Cc1ccc(Cl)cc1)n1cncn1 (stereo not drawn),-0.472%,-6.79%,-1.68%,-15.6%,-11.6%
Oc1ccc2c3c1O[C@H]1c4[nH]c5c(N=C=S)cccc5c4C[C@@]4(O)[C@@H](C2)N(CC2CC2)CC[C@]314,-5.25%,-9.9%,-17.4%,-30.6%,-11.5%
CCC(C)(OC(C)=O)C(=O)O[C@H]1[C@H](OC(C)=O)C[C@@H]2[C@@](C)([C@@H]3C[C@H]4C=CO[C@H]4O3)[C@H](C)C[C@H](OC(C)=O)[C@@]2(COC(C)=O)[C@@]12CO2 (stereo partly drawn),0.214%,8.94%,11.7%,-4.06%,4.66%
COc1ccccc1NC(=O)N1Cc2ccccc2-n2cccc2C1c1ccccc1 (stereo not drawn),3.92%,0%,-0.576%,-0.882%,4.55%
CCCNC(=O)N1Cc2ccccc2-n2cccc2C1c1ccc(OC)cc1 (stereo not drawn),4.07%,-0.816%,2.92%,-11.1%,-1.08%
